Read-outs that look alike come from different tables or passages of the source.
Tested on: FLG 29.1 cells
Assay: Matrigel invasion assay, leukaemic cell line
[1] = 5 μM, normoxia and hypoxia (1% O2), 18 h

| SMILES | effect on invasiveness | effect on invasiveness [1] |
| --- | --- | --- |
| NC1=N[C@H](O)[C@H]2[C@H]3O[C@]4(O)O[C@@H]([C@@H](O)[C@@]2(N1)[C@@H]4O)[C@]3(O)CO [TTX, tetrodotoxin, reference compound] | significantly inhibited invasiveness |  |
| O=C1c2cc(-c3ccc(OC(F)(F)F)cc3)ccc2OCCN1Cc1ncccn1 [eleclazine, 4-(pyrimidin-2-ylmethyl)-7-(4-(trifluoromethoxy)phenyl)-3,4-dihydrobenzo[f][1,4]oxazepin-5(2H)-one] |  | significantly inhibited invasiveness |
| COc1ccccc1OCC(O)CN1CCN(CC(=O)Nc2c(C)cccc2C)CC1 (stereo not drawn) [ranolazine, reference compound] |  | significantly inhibited invasiveness |

From patent US12605390B2, “Treatment of cancer and inhibition of metastasis” (Celex Oncology Innovations Limited, priority 2017, dated 2026)
